By inhibition is commonly meant the share of the control response that was lost under treatment.

What all share (assay): AGC Kinase Selectivity Profiling (ADP-Glo)
Format in all cases: biochemical
(In general: ADP-Glo turns the ADP formed in a reaction into a luminescent signal.)

One assay concerns the target PKCd (Homo sapiens (Human), UniProt Q05655). As to conditions: 1 μM compound; AGC Panel; read-out: Percent enzyme activity inhibition, PKCd. The source says:
(§1) ROCK1 (also called ROCK I, ROKβ, Rho-kinase β, or p160ROCK) and ROCK2 ((also known as ROCK II, ROKα, or Rho kinase) belong to AGC family of serine/threonine kinases. The group of AGC kinases consists of 63 evolutionarily related serine/threonine protein kinases comprising PDK1, PKB/Akt, SGK, PKC, PRK/PKN, MSK, RSK, S6K, PKA, PKG, DMPK, MRCK, ROCK, NDR, LATS, CRIK, MAST, GRK, Sgk494, and YANK, while two other families, Aurora and PLK, are the most closely related to the group (Leroux et al., AGC kinases, mechanisms of regulation and innovative drug development, Semin Cancer Biol. 2018 February; 48:1-17).

The next assay deals with PKCg (Homo sapiens (Human), UniProt P05129). The following applies: 1 μM compound; AGC Panel; read-out: Percent enzyme activity inhibition, PKCg.
From the text: as §1

A further assay deals with p7056Kb (Homo sapiens (Human), UniProt Q9UBS0). As to conditions: 1 μM compound; AGC Panel; read-out: Percent enzyme activity inhibition, p7056Kb.
From the text: as §1

The target in a further assay is PKCi (Homo sapiens (Human), UniProt P41743). As to conditions: 1 μM compound; AGC Panel; read-out: Percent enzyme activity inhibition, PKCi.
From the text: as §1

For a further assay, the target named is PKCe (Homo sapiens (Human), UniProt Q02156). The following applies: 1 μM compound; AGC Panel; read-out: Percent enzyme activity inhibition, PKCe.
From the text: as §1

The target of a further assay is PKCtheta (Homo sapiens (Human), UniProt Q04759). The following applies: 1 μM compound; AGC Panel; read-out: Percent enzyme activity inhibition, PKCtheta.
From the text: as §1

For the next assay, the target named is AKT1 (Homo sapiens (Human), UniProt P31749). As to conditions: 1 μM compound; AGC Panel; read-out: Percent enzyme activity inhibition, AKT1.
From the text: as §1

For a further assay, the target named is PKCz (Homo sapiens (Human), UniProt Q05513). The following applies: 1 μM compound; AGC Panel; read-out: Percent enzyme activity inhibition, PKCz.
From the text: as §1

Sequence of UniProt Q9UBS0 (Q9UBS0 whole entry): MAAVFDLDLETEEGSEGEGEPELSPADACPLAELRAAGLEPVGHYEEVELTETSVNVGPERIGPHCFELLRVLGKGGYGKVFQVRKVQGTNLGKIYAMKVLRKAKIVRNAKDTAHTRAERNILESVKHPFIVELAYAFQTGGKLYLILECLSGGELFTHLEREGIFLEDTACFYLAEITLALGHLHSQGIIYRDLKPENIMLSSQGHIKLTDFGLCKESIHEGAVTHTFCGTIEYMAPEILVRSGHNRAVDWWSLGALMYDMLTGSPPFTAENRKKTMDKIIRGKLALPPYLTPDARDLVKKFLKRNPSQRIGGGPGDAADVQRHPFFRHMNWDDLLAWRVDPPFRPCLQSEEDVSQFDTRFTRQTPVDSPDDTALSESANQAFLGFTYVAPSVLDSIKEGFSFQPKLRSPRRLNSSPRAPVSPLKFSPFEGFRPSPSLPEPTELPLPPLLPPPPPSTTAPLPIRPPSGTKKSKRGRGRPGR
Sequence of UniProt P41743 (P41743 whole entry): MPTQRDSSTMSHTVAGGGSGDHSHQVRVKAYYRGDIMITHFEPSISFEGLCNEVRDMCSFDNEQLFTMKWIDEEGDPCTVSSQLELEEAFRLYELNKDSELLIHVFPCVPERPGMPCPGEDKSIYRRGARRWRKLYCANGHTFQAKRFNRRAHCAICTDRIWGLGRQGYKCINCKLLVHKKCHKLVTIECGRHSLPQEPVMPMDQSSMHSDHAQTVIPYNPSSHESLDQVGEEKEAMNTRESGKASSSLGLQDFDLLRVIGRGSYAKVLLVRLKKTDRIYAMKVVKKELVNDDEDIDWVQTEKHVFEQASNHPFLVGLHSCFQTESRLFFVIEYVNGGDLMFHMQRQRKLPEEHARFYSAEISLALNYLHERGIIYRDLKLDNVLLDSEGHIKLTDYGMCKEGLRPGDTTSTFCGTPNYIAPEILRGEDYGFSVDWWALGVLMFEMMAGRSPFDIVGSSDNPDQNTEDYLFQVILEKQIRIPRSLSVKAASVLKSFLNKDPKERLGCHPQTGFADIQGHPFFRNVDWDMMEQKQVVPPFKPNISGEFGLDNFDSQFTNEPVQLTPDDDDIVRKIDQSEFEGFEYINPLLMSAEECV
Sequence of UniProt Q02156 (Q02156 whole entry): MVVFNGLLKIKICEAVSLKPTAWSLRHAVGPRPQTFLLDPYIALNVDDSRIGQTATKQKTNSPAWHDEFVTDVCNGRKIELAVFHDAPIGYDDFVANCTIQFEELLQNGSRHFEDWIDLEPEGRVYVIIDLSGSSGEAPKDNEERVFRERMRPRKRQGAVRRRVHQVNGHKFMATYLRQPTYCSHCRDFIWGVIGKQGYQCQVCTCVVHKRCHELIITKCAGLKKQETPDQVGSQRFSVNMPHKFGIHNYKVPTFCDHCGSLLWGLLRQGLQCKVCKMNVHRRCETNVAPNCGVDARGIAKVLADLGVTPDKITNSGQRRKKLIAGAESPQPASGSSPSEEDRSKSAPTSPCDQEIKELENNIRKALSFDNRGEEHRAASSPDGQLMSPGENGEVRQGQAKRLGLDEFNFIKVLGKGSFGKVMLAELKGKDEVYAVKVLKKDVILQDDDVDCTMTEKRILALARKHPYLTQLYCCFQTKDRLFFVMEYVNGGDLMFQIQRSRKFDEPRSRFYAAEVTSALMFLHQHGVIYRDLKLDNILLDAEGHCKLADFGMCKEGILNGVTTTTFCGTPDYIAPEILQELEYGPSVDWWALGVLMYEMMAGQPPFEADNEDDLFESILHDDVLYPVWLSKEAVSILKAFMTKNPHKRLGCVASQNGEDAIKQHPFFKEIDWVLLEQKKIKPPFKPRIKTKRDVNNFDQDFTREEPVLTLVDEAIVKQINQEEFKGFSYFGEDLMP
Sequence of UniProt Q05513 (Q05513 whole entry): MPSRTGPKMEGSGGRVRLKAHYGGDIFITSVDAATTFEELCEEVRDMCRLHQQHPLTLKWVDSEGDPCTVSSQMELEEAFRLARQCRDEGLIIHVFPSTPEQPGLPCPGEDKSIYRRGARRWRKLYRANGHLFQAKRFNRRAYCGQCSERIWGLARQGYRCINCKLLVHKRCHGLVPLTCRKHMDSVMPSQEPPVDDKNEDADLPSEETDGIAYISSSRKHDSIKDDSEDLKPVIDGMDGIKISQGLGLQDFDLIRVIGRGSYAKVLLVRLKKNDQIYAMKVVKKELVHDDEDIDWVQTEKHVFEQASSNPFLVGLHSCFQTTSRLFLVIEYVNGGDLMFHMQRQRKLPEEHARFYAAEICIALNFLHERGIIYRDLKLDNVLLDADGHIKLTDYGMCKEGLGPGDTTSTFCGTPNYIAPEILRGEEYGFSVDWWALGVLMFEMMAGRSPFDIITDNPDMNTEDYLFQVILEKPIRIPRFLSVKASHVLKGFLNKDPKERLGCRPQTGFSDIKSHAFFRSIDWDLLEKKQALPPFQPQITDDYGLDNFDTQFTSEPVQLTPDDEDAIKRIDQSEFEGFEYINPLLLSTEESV
Sequence of UniProt Q04759 (Q04759 whole entry): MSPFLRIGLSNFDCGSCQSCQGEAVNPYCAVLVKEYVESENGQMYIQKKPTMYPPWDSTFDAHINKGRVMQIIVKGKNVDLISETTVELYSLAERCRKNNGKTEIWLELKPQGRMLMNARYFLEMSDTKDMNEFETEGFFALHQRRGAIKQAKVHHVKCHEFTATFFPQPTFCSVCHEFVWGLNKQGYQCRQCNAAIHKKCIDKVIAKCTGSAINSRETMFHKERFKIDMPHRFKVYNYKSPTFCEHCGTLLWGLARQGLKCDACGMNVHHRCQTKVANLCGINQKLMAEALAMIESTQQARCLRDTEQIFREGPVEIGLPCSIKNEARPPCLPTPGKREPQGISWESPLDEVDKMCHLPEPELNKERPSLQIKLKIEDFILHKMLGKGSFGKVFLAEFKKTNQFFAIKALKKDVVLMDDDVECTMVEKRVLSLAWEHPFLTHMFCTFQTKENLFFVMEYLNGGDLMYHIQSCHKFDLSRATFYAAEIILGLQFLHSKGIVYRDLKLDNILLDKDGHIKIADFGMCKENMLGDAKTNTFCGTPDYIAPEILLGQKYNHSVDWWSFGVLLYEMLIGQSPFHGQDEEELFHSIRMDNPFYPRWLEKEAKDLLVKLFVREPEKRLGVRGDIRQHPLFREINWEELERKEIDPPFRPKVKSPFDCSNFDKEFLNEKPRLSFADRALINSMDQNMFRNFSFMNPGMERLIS
Sequence of UniProt Q05655 (Q05655 whole entry): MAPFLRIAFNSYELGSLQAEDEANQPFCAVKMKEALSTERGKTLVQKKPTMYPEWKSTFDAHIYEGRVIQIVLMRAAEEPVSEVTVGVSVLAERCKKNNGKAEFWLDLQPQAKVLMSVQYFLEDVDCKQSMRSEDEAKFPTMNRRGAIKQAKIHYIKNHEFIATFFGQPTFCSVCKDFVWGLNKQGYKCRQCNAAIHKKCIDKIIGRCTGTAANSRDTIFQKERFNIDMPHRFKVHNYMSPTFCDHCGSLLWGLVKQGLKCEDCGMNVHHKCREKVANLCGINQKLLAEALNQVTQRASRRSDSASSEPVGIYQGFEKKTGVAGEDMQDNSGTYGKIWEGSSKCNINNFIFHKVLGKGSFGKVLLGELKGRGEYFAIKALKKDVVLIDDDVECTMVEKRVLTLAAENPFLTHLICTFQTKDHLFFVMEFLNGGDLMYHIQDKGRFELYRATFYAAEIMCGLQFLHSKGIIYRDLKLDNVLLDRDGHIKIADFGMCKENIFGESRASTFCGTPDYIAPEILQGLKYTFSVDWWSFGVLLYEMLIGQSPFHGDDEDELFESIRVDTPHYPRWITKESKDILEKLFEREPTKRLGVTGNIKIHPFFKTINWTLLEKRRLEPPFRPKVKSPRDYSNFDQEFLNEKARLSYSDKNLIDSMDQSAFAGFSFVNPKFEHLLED
Sequence of UniProt P31749 (P31749 whole entry): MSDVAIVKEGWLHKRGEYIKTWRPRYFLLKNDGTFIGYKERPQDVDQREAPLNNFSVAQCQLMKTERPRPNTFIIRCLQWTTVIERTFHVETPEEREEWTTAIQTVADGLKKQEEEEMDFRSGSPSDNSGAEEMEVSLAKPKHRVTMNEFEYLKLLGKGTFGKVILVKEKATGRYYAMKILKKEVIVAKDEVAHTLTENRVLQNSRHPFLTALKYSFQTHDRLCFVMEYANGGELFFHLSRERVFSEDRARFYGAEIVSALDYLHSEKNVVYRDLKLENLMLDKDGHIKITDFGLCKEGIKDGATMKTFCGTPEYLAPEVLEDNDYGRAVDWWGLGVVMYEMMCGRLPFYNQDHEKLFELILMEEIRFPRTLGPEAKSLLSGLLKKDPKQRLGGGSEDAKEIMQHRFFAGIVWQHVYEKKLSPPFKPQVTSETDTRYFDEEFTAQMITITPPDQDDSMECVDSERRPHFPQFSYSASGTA

With `Cc1ccc(C(=O)OCc2ccc([C@@H](CN)C(=O)Nc3ccc4cnccc4c3)cc2)c(C)c1.Cl.Cl` [Netarsudil•2HCl, Netarsudil, reference compound], the inhibition at 1 µM at PKCd was 75%; on PKCg, 36%; at p7056Kb it was 52%; on PKCi it was 20%; at PKCe, 25%; at PKCtheta, 51%. Also, the values for the inhibition at 1 µM on AKT1 and on PKCz were 5% and 22%, respectively.

Source of the values: patent publication US12479866B2, “Boron-containing rho kinase inhibitors” (Percipiad, Inc., priority 2019, dated 2025).
